Experimental data taken from ChEMBL document CHEMBL4888484, “Replenishing the malaria drug discovery pipeline: Screening and hit evaluation of the MMV Hit Generation Library 1 (HGL1) against asexual blood stage Plasmodium falciparum ,using a nano luciferase reporter read-out” (2022).
In all, about 150,000 compounds went through this assay and about 540 (0.36%) showed an effect of 50% or more. The list shows a part of the results.

These molecules were tested on Plasmodium falciparum (assay: Primary screen in NF54 nanoGlo assay, in single point, at 2uM, 72h; a lower Z score goes with more inhibition). Conditions: timepoint 72 hour.
Type: functional, Erythrocyte

Point of comparison: `CC(C)C[C@@]1(C(=O)O)C[C@H](C(=O)NCC(F)F)[C@H](c2cccnc2)N1C`, “% Inhibition” value 10%. Against it:
- COc1cc(CNS(=O)(=O)c2cccc(-c3nc(-c4ccc(C)cc4)no3)c2)cc(OC)c1OC — lower, -1%
- Cn1c(C(=O)N2CCN(c3cc(N4CCOCC4)ncn3)CC2)cccc1=O — lower, 1%
- CCOC(=O)[C@H]1CCCN(C(=O)c2cc(-c3ccccc3OC)n3nc(C(C)(C)C)cc3n2)C1 — lower, 6%
- CC[C@H](O)CN1CCOc2c(O)cc(-c3ccc(Cl)cn3)cc2C1 — lower, -9%
- COCCOc1nc(-c2ccc3c(c2)OCO3)n(-c2ccc(NC(=O)c3ccc(OC)cc3)cc2)n1 — lower, -17%
- CCN(Cc1nc2ccccc2c(=O)[nH]1)C(=O)[C@H](C)c1c(C)noc1C — lower, -1%
- CCN(Cc1noc(C)n1)C(=O)c1cc(CC(C)C)nc(N)n1 — lower, -13%
- CCO[C@H]1COC[C@@H]1NC(=O)c1nc(C)c[nH]1 — lower, -7%
- O=C(c1ccc(S(=O)(=O)N2CCOCC2)cc1)N1CCCCC1 — lower, -8%
- CC[C@H]1CCCCN1C(=O)COc1cc(C(F)(F)F)c2c(C)nn(C)c2n1 — lower, -10%
- O=C(Nc1nc(C2CC2)cs1)N1CC(CN2C(=O)COC2=O)C1 — lower, 9%
- Cn1c([C@@H]2CCCO2)nn(CC2CC2)c1=O — lower, -15%
- COc1ccc(C(=O)NCC(C)C)cc1Cl — lower, -14%
- Cc1cc([C@@H](C#N)c2ccc(Cl)cc2)c(Cl)cc1NC(=O)CCCOc1ccccc1 — lower, -2%
- CCCNC(=O)N1CCC(N2CC3(CCCC3)[C@H]2c2ccccc2)CC1 — lower, -7%
- NC(=O)c1ccc(C(=O)OC2CCCCCC2)cn1 — lower, 3%
- CC(C)c1nc(Cn2cnccc2=O)no1 — lower, 1%
- O=C(N1CCO[C@H](c2ccccc2)C1)C1(c2ccccc2)CCOCC1 — lower, -7%
- CCc1noc(CC)c1CC(=O)N1C[C@H](OC)C[C@H]1c1nc(C)n[nH]1 — lower, -12%
- Cc1cccc(CN(Cc2ccccn2)C(=O)c2cc(C)no2)c1 — lower, -11%
- OC[C@H]1CCCN(CCNc2nccc3cccnc23)C1 — lower, -5%
- CCN1C(=O)c2c(C(=O)NCCc3ccccc3)ncn2C[C@@]1(C)C(=O)NC1CCCC1 — lower, -6%
- CCc1cc2c3c([nH]c2cc1S(=O)(=O)NCCN1CCCCCC1)CCCC3=O — lower, -5%
- CCCn1ncc(C(=O)N(CCOC)CC2CC2)c1C — lower, 2%
- O=C1CC[C@@]2(CCCN(C(=O)c3ncccc3O)C2)CN1Cc1cccnc1 — lower, -5%
- O=C(CN1C(=O)CN(c2ccccc2)C1=O)Nc1cccc2ccccc12 — lower, 1%
- CN(C(=O)Nc1ccccc1OCc1ccccc1)[C@@H]1CCCC[C@@H]1O — lower, -8%
- O=C([C@@H]1C[C@@H]2OCC[C@@H]2N1C(=O)c1ccc(Oc2ccccc2)o1)N1CCCC1 — lower, 6%
- Cc1c(CC(=O)N[C@H]2CCOC2)c2c(n1CCc1ccccc1)CCCC2=O — lower, -6%
- C[C@H]1CCCN(C(=O)c2cnn3c(-c4cccnc4)ccnc23)CC1 — lower, -5%
- O=C(c1coc(COc2cccc(C(F)(F)F)c2)n1)N1CCC[C@H](CO)C1 — lower, 0%
- O=C(Cc1ccc2[nH]c(=O)[nH]c2c1)N1CCOC[C@@H]1CC1CCC1 — lower, 2%
- O=C1CCC(=O)N1c1nc2n(n1)[C@H](c1ccccc1Cl)C=C(c1ccccc1)N2 — lower, -15%
- Cc1nc2ccc(C(=O)N3C[C@@H]4c5ccccc5OC[C@]4(CO)C3)cc2o1 — lower, 0%
- COc1ccc(C)cc1N[C@@H](C)C(N)=O — higher, 16%
- Cc1cc(C(=O)N2CC[C@](C)(O)[C@H](Cc3ccccc3)C2)[nH]n1 — lower, -10%
- CCC(CC)(C(=O)NCc1nccs1)C(=O)OC(C)(C)C — lower, -3%
- O=C(CCc1nnc[nH]1)Nc1ccc(-c2cc3ccccc3o2)cc1 — lower, -4%
- CCn1c(CC2CCN(Cc3cc4ccccc4[nH]3)CC2)nn(C)c1=O — lower, -6%
- CC(C)C(CNC(=O)N1CC[C@](C)(O)C1)C(C)C — lower, -5%

Point of comparison: `CCN(Cc1noc(C)n1)C(=O)c1cc(CC(C)C)nc(N)n1`, Z score 1.15. Against it:
- CC(C)C[C@@]1(C(=O)O)C[C@H](C(=O)NCC(F)F)[C@H](c2cccnc2)N1C — lower, -0.95
- COc1cc(CNS(=O)(=O)c2cccc(-c3nc(-c4ccc(C)cc4)no3)c2)cc(OC)c1OC — lower, 0.16
- Cn1c(C(=O)N2CCN(c3cc(N4CCOCC4)ncn3)CC2)cccc1=O — lower, -0.16
- CCOC(=O)[C@H]1CCCN(C(=O)c2cc(-c3ccccc3OC)n3nc(C(C)(C)C)cc3n2)C1 — lower, -0.78
- CC[C@H](O)CN1CCOc2c(O)cc(-c3ccc(Cl)cn3)cc2C1 — higher, 1.34
- COCCOc1nc(-c2ccc3c(c2)OCO3)n(-c2ccc(NC(=O)c3ccc(OC)cc3)cc2)n1 — higher, 2.45
- CCN(Cc1nc2ccccc2c(=O)[nH]1)C(=O)[C@H](C)c1c(C)noc1C — lower, 0.21
- CCO[C@H]1COC[C@@H]1NC(=O)c1nc(C)c[nH]1 — lower, 0.7
- O=C(c1ccc(S(=O)(=O)N2CCOCC2)cc1)N1CCCCC1 — lower, 1.08
- CC[C@H]1CCCCN1C(=O)COc1cc(C(F)(F)F)c2c(C)nn(C)c2n1 — lower, 1.08
- O=C(Nc1nc(C2CC2)cs1)N1CC(CN2C(=O)COC2=O)C1 — lower, -1.21
- Cn1c([C@@H]2CCCO2)nn(CC2CC2)c1=O — higher, 2.19
- COc1ccc(C(=O)NCC(C)C)cc1Cl — higher, 1.95
- Cc1cc([C@@H](C#N)c2ccc(Cl)cc2)c(Cl)cc1NC(=O)CCCOc1ccccc1 — lower, 0.47
- CCCNC(=O)N1CCC(N2CC3(CCCC3)[C@H]2c2ccccc2)CC1 — lower, 1.05
- NC(=O)c1ccc(C(=O)OC2CCCCCC2)cn1 — lower, -0.42
- CC(C)c1nc(Cn2cnccc2=O)no1 — lower, -0.07
- O=C(N1CCO[C@H](c2ccccc2)C1)C1(c2ccccc2)CCOCC1 — lower, 0.91
- CCc1noc(CC)c1CC(=O)N1C[C@H](OC)C[C@H]1c1nc(C)n[nH]1 — higher, 1.67
- Cc1cccc(CN(Cc2ccccn2)C(=O)c2cc(C)no2)c1 — higher, 1.37
- OC[C@H]1CCCN(CCNc2nccc3cccnc23)C1 — lower, 0.82
- CCN1C(=O)c2c(C(=O)NCCc3ccccc3)ncn2C[C@@]1(C)C(=O)NC1CCCC1 — lower, 1.03
- CCc1cc2c3c([nH]c2cc1S(=O)(=O)NCCN1CCCCCC1)CCCC3=O — lower, 0.83
- CCCn1ncc(C(=O)N(CCOC)CC2CC2)c1C — lower, -0.36
- O=C1CC[C@@]2(CCCN(C(=O)c3ncccc3O)C2)CN1Cc1cccnc1 — lower, 0.71
- O=C(CN1C(=O)CN(c2ccccc2)C1=O)Nc1cccc2ccccc12 — lower, -0.07
- CN(C(=O)Nc1ccccc1OCc1ccccc1)[C@@H]1CCCC[C@@H]1O — higher, 1.45
- O=C([C@@H]1C[C@@H]2OCC[C@@H]2N1C(=O)c1ccc(Oc2ccccc2)o1)N1CCCC1 — lower, -0.87
- Cc1c(CC(=O)N[C@H]2CCOC2)c2c(n1CCc1ccccc1)CCCC2=O — lower, 1.07
- C[C@H]1CCCN(C(=O)c2cnn3c(-c4cccnc4)ccnc23)CC1 — lower, 0.61
- O=C(c1coc(COc2cccc(C(F)(F)F)c2)n1)N1CCC[C@H](CO)C1 — lower, -0.04
- O=C(Cc1ccc2[nH]c(=O)[nH]c2c1)N1CCOC[C@@H]1CC1CCC1 — lower, -0.19
- O=C1CCC(=O)N1c1nc2n(n1)[C@H](c1ccccc1Cl)C=C(c1ccccc1)N2 — higher, 1.64
- Cc1nc2ccc(C(=O)N3C[C@@H]4c5ccccc5OC[C@]4(CO)C3)cc2o1 — lower, -0.05
- COc1ccc(C)cc1N[C@@H](C)C(N)=O — lower, -1.87
- Cc1cc(C(=O)N2CC[C@](C)(O)[C@H](Cc3ccccc3)C2)[nH]n1 — lower, 1.05
- CCC(CC)(C(=O)NCc1nccs1)C(=O)OC(C)(C)C — lower, 0.5
- O=C(CCc1nnc[nH]1)Nc1ccc(-c2cc3ccccc3o2)cc1 — lower, 0.89
- CCn1c(CC2CCN(Cc3cc4ccccc4[nH]3)CC2)nn(C)c1=O — lower, 0.53
- CC(C)C(CNC(=O)N1CC[C@](C)(O)C1)C(C)C — lower, 0.59
